Results published in the supplement of paper PMC8007513.
Counter-ions that a name gives are not always drawn. ± gives the standard error. In all, about 1,300 compounds went through this assay and about 130 (10%) showed an effect of 50% or more. The list shows a part of the results, in another mix than the full data.

Test system: Trichoderma virens ATCC 9645
Test: growth yield (OD600) with compound + IPBC relative to untreated control; higher = less growth inhibition
Details: compound concentration: 100 uM, IPBC concentration: 200 ng/ml
Outline: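 Growth appears as means of duplicate screens, relative to the control containing neither agent. To obtain it, OD600 was read on a BioTek EL800 at 40 h and 72 h. The cultures were 100 μl aliquots in 96-well plates at 30 °C, holding Trichoderma virens ATCC 9645 spores at 15,000 spores ml^−1 in potato dextrose broth, library compounds at 100 μM final, and, in some wells, a biocide at 200 ng ml^−1.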

## CCN(CC)CCNC(=O)c1ccc(N)cc1 [Procainamide hydrochloride] + CCCCNC(=O)OCC#CI [3-iodo-2-propynyl butylcarbamate (IPBC)]
40 h
  growth yield: 89.1 ± 2.4%
72 h
  growth yield: 95.4 ± 1.7%

## CNCC(O)c1ccc(O)c(O)c1 (centres undefined) [Racepinephrine hydrochloride] + CCCCNC(=O)OCC#CI [3-iodo-2-propynyl butylcarbamate (IPBC)]
40 h
  growth yield: 88.8 ± 3.6%
72 h
  growth yield: 89.4 ± 3.1%

## CCOC1O[C@H]([C@@H](COCc2ccccc2)OCc2ccccc2)[C@H](OCc2ccccc2)[C@H]1O (some centres undefined) [Tribenoside] + CCCCNC(=O)OCC#CI [3-iodo-2-propynyl butylcarbamate (IPBC)]
40 h
  growth yield: 75.4 ± 2.1%
72 h
  growth yield: 88.1 ± 1.1%

## Clc1ccc2nsnc2c1NC1=NCCN1 [Tizanidine hydrochloride] + CCCCNC(=O)OCC#CI [3-iodo-2-propynyl butylcarbamate (IPBC)]
40 h
  growth yield: 83.4 ± 2.4%
72 h
  growth yield: 91.3 ± 1.1%

## CC(C)Oc1ccc2c(=O)c(-c3ccccc3)coc2c1 [Ipriflavone] + CCCCNC(=O)OCC#CI [3-iodo-2-propynyl butylcarbamate (IPBC)]
40 h
  growth yield: 78.3 ± 4.6%
72 h
  growth yield: 88.2 ± 2.6%

## CC(=O)Nc1nnc(S(N)(=O)=O)s1 [Acetazolamide] + CCCCNC(=O)OCC#CI [3-iodo-2-propynyl butylcarbamate (IPBC)]
40 h
  growth yield: 85.6 ± 2.4%
72 h
  growth yield: 88.62 ± 0.73%

## Cc1cc2cc3c(C)cc(=O)oc3c(C)c2o1 [Trioxsalen] + CCCCNC(=O)OCC#CI [3-iodo-2-propynyl butylcarbamate (IPBC)]
40 h
  growth yield: 61.3 ± 0.64%
72 h
  growth yield: 86.2 ± 1.9%

## C[C@]12CC[C@@H]3c4ccc(O)cc4C[C@@H](CCCCCCCCC[S+]([O-])CCCC(F)(F)C(F)(F)F)[C@H]3[C@@H]1CC[C@@H]2O (some centres undefined) [Fulvestrant] + CCCCNC(=O)OCC#CI [3-iodo-2-propynyl butylcarbamate (IPBC)]
40 h
  growth yield: 106.6 ± 0.48%
72 h
  growth yield: 105 ± 1.7%

## CO/N=C(\C(=O)N[C@@H]1C(=O)N2C(C(=O)O)=C(COC(C)=O)CS[C@H]12)c1csc(N)n1 [Cefotaxime sodium salt] + CCCCNC(=O)OCC#CI [3-iodo-2-propynyl butylcarbamate (IPBC)]
40 h
  growth yield: 86.2 ± 4.3%
72 h
  growth yield: 94.4 ± 5.5%

## CN1CCN(C(=O)O[C@H]2c3nccnc3C(=O)N2c2ccc(Cl)cn2)CC1 [Eszopiclone] + CCCCNC(=O)OCC#CI [3-iodo-2-propynyl butylcarbamate (IPBC)]
40 h
  growth yield: 88.6 ± 7.3%
72 h
  growth yield: 91.2 ± 1.9%

## CN(C)CCC(c1ccc(Br)cc1)c1ccccn1 (centres undefined) [Brompheniramine maleate] + CCCCNC(=O)OCC#CI [3-iodo-2-propynyl butylcarbamate (IPBC)]
40 h
  growth yield: 74.97 ± 0.32%
72 h
  growth yield: 86.31 ± 0.32%

## c1ccc(-c2ccc(C(c3ccccc3)n3ccnc3)cc2)cc1 (centres undefined) [Bifonazole] + CCCCNC(=O)OCC#CI [3-iodo-2-propynyl butylcarbamate (IPBC)]
40 h
  growth yield: 4.92 ± 0.16%
72 h
  growth yield: 3.25 ± 0.1%

## Oc1c(Cl)cc(Cl)c2cccnc12 [Chloroxine] + CCCCNC(=O)OCC#CI [3-iodo-2-propynyl butylcarbamate (IPBC)]
40 h
  growth yield: 1.27 ± 0.95%
72 h
  growth yield: 1.89 ± 0.21%

## O=C1CC[C@@H](C(=O)N2CSC[C@H]2C(=O)O)N1 [Pidotimod] + CCCCNC(=O)OCC#CI [3-iodo-2-propynyl butylcarbamate (IPBC)]
40 h
  growth yield: 88 ± 0.32%
72 h
  growth yield: 88.4 ± 1.8%

## CC(=O)OC[C@H]1O[C@@H]([S-])[C@H](OC(C)=O)[C@@H](OC(C)=O)[C@@H]1OC(C)=O.CCP(CC)CC.[Au+] [Auranofin] + CCCCNC(=O)OCC#CI [3-iodo-2-propynyl butylcarbamate (IPBC)]
40 h
  growth yield: 23.2 ± 1.3%
72 h
  growth yield: 29.7 ± 2.4%

## CCCCc1oc2ccc(NS(C)(=O)=O)cc2c1C(=O)c1ccc(OCCCN(CCCC)CCCC)cc1 [Dronedarone hydrochloride] + CCCCNC(=O)OCC#CI [3-iodo-2-propynyl butylcarbamate (IPBC)]
40 h
  growth yield: 6.51 ± 0.16%
72 h
  growth yield: 3.25 ± 0.32%

## CCC1(c2ccccc2)C(=O)NCNC1=O [Primidone] + CCCCNC(=O)OCC#CI [3-iodo-2-propynyl butylcarbamate (IPBC)]
40 h
  growth yield: 86.25 ± 0.79%
72 h
  growth yield: 89.25 ± 0.52%

## Nc1ncnc2c1ncn2[C@@H]1O[C@H](CO)[C@@H](O)[C@@H]1O [Vidarabine] + CCCCNC(=O)OCC#CI [3-iodo-2-propynyl butylcarbamate (IPBC)]
40 h
  growth yield: 121 ± 11%
72 h
  growth yield: 109 ± 7.3%

## O=C1CC[C@@]2(O)[C@H]3Cc4ccc(O)c5c4[C@@]2(CCN3CC2CC2)[C@H]1O5 [Naltrexone hydrochloride dihydrate] + CCCCNC(=O)OCC#CI [3-iodo-2-propynyl butylcarbamate (IPBC)]
40 h
  growth yield: 85.6 ± 5.6%
72 h
  growth yield: 91.5 ± 6.7%

## CCOc1nc2cccc(C(=O)O)c2n1Cc1ccc(-c2ccccc2-c2nnn[nH]2)cc1 [Candesartan] + CCCCNC(=O)OCC#CI [3-iodo-2-propynyl butylcarbamate (IPBC)]
40 h
  growth yield: 83.9 ± 1.9%
72 h
  growth yield: 94.9 ± 2.6%

## C[C@@](Cc1ccc(O)c(O)c1)(NN)C(=O)O [Carbidopa] + CCCCNC(=O)OCC#CI [3-iodo-2-propynyl butylcarbamate (IPBC)]
40 h
  growth yield: 79.26 ± 0.16%
72 h
  growth yield: 86.1 ± 1.1%

## Cn1c(=O)c2c(ncn2CC2OCCO2)n(C)c1=O [Doxofylline] + CCCCNC(=O)OCC#CI [3-iodo-2-propynyl butylcarbamate (IPBC)]
40 h
  growth yield: 92.4 ± 6.7%
72 h
  growth yield: 95.2 ± 5%

## CN1CCN(CC(=O)N2c3ccccc3C(=O)Nc3cccnc32)CC1 [Pirenzepine dihydrochloride] + CCCCNC(=O)OCC#CI [3-iodo-2-propynyl butylcarbamate (IPBC)]
40 h
  growth yield: 95.3 ± 7.3%
72 h
  growth yield: 98.8 ± 5.9%

## CC(=O)N(CC(O)CO)c1c(I)c(C(=O)NCC(O)CO)c(I)c(C(=O)NCC(O)CO)c1I (centres undefined) [Iohexol] + CCCCNC(=O)OCC#CI [3-iodo-2-propynyl butylcarbamate (IPBC)]
40 h
  growth yield: 91.2 ± 8.3%
72 h
  growth yield: 93.7 ± 5.6%

## CN(CCCCCCCCCCN(C)C(=O)Oc1cccc([N+](C)(C)C)c1)C(=O)Oc1cccc([N+](C)(C)C)c1 [Demecarium bromide] + CCCCNC(=O)OCC#CI [3-iodo-2-propynyl butylcarbamate (IPBC)]
40 h
  growth yield: 3.97 ± 0.16%
72 h
  growth yield: 2.73%

## COC(=O)Nc1nc2cc(Sc3ccccc3)ccc2[nH]1 [Fenbendazole] + CCCCNC(=O)OCC#CI [3-iodo-2-propynyl butylcarbamate (IPBC)]
40 h
  growth yield: 82.8 ± 1.1%
72 h
  growth yield: 93.3 ± 2.7%

## CN(C)C(=N)NC(=N)N [Metformin hydrochloride] + CCCCNC(=O)OCC#CI [3-iodo-2-propynyl butylcarbamate (IPBC)]
40 h
  growth yield: 85.9 ± 4.9%
72 h
  growth yield: 88 ± 2.2%

## CC=CC(=O)N(CC)c1ccccc1C [Crotamiton] + CCCCNC(=O)OCC#CI [3-iodo-2-propynyl butylcarbamate (IPBC)]
40 h
  growth yield: 98.8 ± 5.1%
72 h
  growth yield: 102 ± 2.2%

## CNCCc1ccccn1 [Betahistine mesylate] + CCCCNC(=O)OCC#CI [3-iodo-2-propynyl butylcarbamate (IPBC)]
40 h
  growth yield: 88 ± 8.3%
72 h
  growth yield: 92 ± 5.6%

## Nc1nc2c(ncn2COC(CO)CO)c(=O)[nH]1 [Ganciclovir] + CCCCNC(=O)OCC#CI [3-iodo-2-propynyl butylcarbamate (IPBC)]
40 h
  growth yield: 99.9 ± 16%
72 h
  growth yield: 98.1 ± 10%

## CO[C@H]1/C=C/O[C@@]2(C)Oc3c(C)c(O)c4c(O)c(c5c(nc6cc(C)ccn65)c4c3C2=O)NC(=O)/C(C)=C\C=C\[C@H](C)[C@H](O)[C@@H](C)[C@@H](O)[C@@H](C)[C@H](OC(C)=O)[C@@H]1C [Rifaximin] + CCCCNC(=O)OCC#CI [3-iodo-2-propynyl butylcarbamate (IPBC)]
40 h
  growth yield: 126 ± 8.1%
72 h
  growth yield: 119 ± 6.5%

## Clc1cccc(Cl)c1NC1=NCCN1 [Clonidine hydrochloride] + CCCCNC(=O)OCC#CI [3-iodo-2-propynyl butylcarbamate (IPBC)]
40 h
  growth yield: 92.9 ± 5.6%
72 h
  growth yield: 99.2 ± 4.4%

## CC(=O)O[C@]1(C(C)=O)CC[C@H]2[C@@H]3C=C(Cl)C4=CC(=O)CC[C@]4(C)[C@H]3CC[C@@]21C [Chlormadinone acetate] + CCCCNC(=O)OCC#CI [3-iodo-2-propynyl butylcarbamate (IPBC)]
40 h
  growth yield: 115 ± 9.5%
72 h
  growth yield: 118 ± 6.7%

## CCCNC(=O)NS(=O)(=O)c1ccc(Cl)cc1 [Chlorpropamide] + CCCCNC(=O)OCC#CI [3-iodo-2-propynyl butylcarbamate (IPBC)]
40 h
  growth yield: 93.7 ± 4.1%
72 h
  growth yield: 102 ± 2.2%

## CN(C)CCOC(c1ccccc1)c1ccccc1.Cn1c(=O)c2[nH]c(Cl)nc2n(C)c1=O [Dimenhydrinate] + CCCCNC(=O)OCC#CI [3-iodo-2-propynyl butylcarbamate (IPBC)]
40 h
  growth yield: 79.6 ± 2.7%
72 h
  growth yield: 92.5 ± 2.3%

## Clc1ccc2c(c1)CCc1cccnc1C2=C1CCNCC1 [Desloratadine] + CCCCNC(=O)OCC#CI [3-iodo-2-propynyl butylcarbamate (IPBC)]
40 h
  growth yield: 56.2 ± 0.64%
72 h
  growth yield: 89.7 ± 1.4%

## O=C1NCC2(CCN(CCc3ccccc3)CC2)O1 [Fenspiride hydrochloride] + CCCCNC(=O)OCC#CI [3-iodo-2-propynyl butylcarbamate (IPBC)]
40 h
  growth yield: 93.2 ± 1.1%
72 h
  growth yield: 100 ± 2.4%

## Cc1[nH]cnc1CN1CCc2c(c3ccccc3n2C)C1=O [Alosetron hydrochloride] + CCCCNC(=O)OCC#CI [3-iodo-2-propynyl butylcarbamate (IPBC)]
40 h
  growth yield: 85.5 ± 1.3%
72 h
  growth yield: 87.89 ± 0.21%

## CCCOc1ccc2[nH]c(NC(=O)OC)nc2c1 [Oxibendazol] + CCCCNC(=O)OCC#CI [3-iodo-2-propynyl butylcarbamate (IPBC)]
40 h
  growth yield: 44.6 ± 2.1%

## O=C(c1ccc(F)cc1)C1CCN(CCn2c(=O)[nH]c3ccccc3c2=O)CC1 [Ketanserin tartrate hydrate] + CCCCNC(=O)OCC#CI [3-iodo-2-propynyl butylcarbamate (IPBC)]
40 h
  growth yield: 98.5 ± 8.3%
72 h
  growth yield: 101 ± 3.2%
